# From PubChem BioAssay AID686978 (National Center for Advancing Translational Sciences (NCATS), 2013)
# In all, about 420,000 compounds went through this assay and about 64,000 (15%) were called active. This list was built around the results that the source calls inconclusive (neither active nor inactive); the mix of calls is not that of the screen. Calls follow the shape of the dose curve; as a rule, active = well fitted inhibition curve with a large enough effect; inconclusive = small, poorly fitted or top-dose-only effect; inactive = flat fitted curve, though single readings scatter. Potencies of inconclusive entries are left out as doubtful fits.
# Assay: qHTS for Inhibitors of human tyrosyl-DNA phosphodiesterase 1 (TDP1): qHTS in cells in absence of CPT; also: nearly all actives have a fitted effect of over 55% in size
# Settings: DT40 Tdp1-/- hTDP1 cells, no CPT, ATP luminescence, 48 h; series mostly up to 46.2 µM
# Summary of the method: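 Compound effects on proliferation are scored in DT40 Tdp1-/-;hTDP1 cells in the absence of CPT. ATP levels (CellTiter-Glo luminescence) are recorded after a ≥48 hr, 37 °C incubation.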
# Potency is read from the fitted curve at half-maximal effect; tags tell the direction and shape of the fitted curve.
row,Compound,Potency
1,CC(=O)c1ccc(NC2CC(O)C(O)CO2)cc1 (centres undefined),inactive
2,COc1cccc(Nc2nnc(SCc3cc([N+](=O)[O-])cc4c3OCOC4)s2)c1,"inconclusive [inhibitor, single point]"
3,Cc1ccc2cc(CCNC(=O)C(C)C)c(=O)[nH]c2c1C,inactive
4,CNC(=O)c1c(NC(=O)c2ccc(S(=O)(=O)N3CCC(C)CC3)cc2)sc2c1CCC2,active: 23.1 µM
5,CCCCCn1c(SCCc2ccccc2)nc2c1c(=O)[nH]c(=O)n2C,"inconclusive [inhibitor, partial curve]"
6,Cc1ccc(N2C(=O)CSC23C(=O)N(CC(=O)NCc2ccccc2)c2ccccc23)cc1C (centres undefined),"inconclusive [inhibitor, single point]"
7,CC1CCCCN1C(=O)COC(=O)C1CCN(S(=O)(=O)c2c(Cl)cccc2Cl)CC1 (centres undefined),inactive
8,CCN(CCn1cccn1)C(=O)c1cc(COc2ccc(F)c(F)c2)on1,"inconclusive [inhibitor, partial curve, poor fit]"
9,CC1CCN(C(=S)c2ccc(-c3ccc(Cl)cc3Cl)o2)CC1,"inconclusive [inhibitor, single point]"
10,COCCCNC(=O)c1ccc(NC(=O)c2nsc3ccccc23)cc1,"inconclusive [inhibitor, single point]"
11,Cc1cccc(NC(=S)NN2CCN(C)CC2)c1C,inactive
12,O=S(=O)(Nc1c(S(=O)(=O)c2ccccc2)c2nc3ccccc3nc2n1C1CCCCC1)c1ccccc1,active: 5.17 µM
13,C=CCc1cccc(/C=N/NC(=O)C[n+]2ccccc2)c1O,"inconclusive [inhibitor, single point]"
14,Cc1ccc(OCc2ccc(C(=O)Nc3cc(C)on3)o2)c([N+](=O)[O-])c1,inactive
15,Cc1nc(C)c(C(=O)N(c2ccc(F)cc2)C(C(=O)NCC2CCCO2)c2ccccc2)s1 (centres undefined),"inconclusive [inhibitor, single point]"
16,Cc1ccc2c(Sc3ccc(Cl)cc3)c(C(=O)N3CCC(C)CC3)[nH]c2c1,active: 20.6 µM
17,COc1ccc(CNS(=O)(=O)c2cnc(N)nc2)c(OC)c1,"inconclusive [inhibitor, single point]"
18,O=c1[nH]ncc(N/N=C\c2ccc(O)cc2O)c1Cl,"inconclusive [inhibitor, partial curve, poor fit]"
19,O=C(NNC(=O)c1cccc2ccccc12)c1ccc(-c2ccccc2)cc1,"inconclusive [inhibitor, single point]"
20,CC(=O)Nc1cc(-c2cccc(C(=O)NCCN(C)C)c2)cn2c(-c3cccc(C(F)(F)F)c3)cnc12,"inconclusive [inhibitor, single point]"
21,CCC(Oc1ccc(C)cc1)C(=O)Nc1ccccc1C(=O)N1CCOCC1 (centres undefined),inactive
22,COCCn1c(SCC(=O)N2CCCc3ccccc32)nc2cccnc21,"inconclusive [inhibitor, single point]"
23,CC(=O)c1cc(NC(=O)c2ccc(Cl)cc2)c(=O)oc1/C=C/N(C)C,"inconclusive [inhibitor, single point]"

row,Compound,Potency
1,COc1ccc(OCc2cc(=O)c3ccc4c(c3o2)C=CC(C)(C)O4)cc1OC,"inconclusive [inhibitor, single point]"
2,CCC1CN(C(=O)N2CCC(C(=O)NCCN(CC)CC)CC2)c2cc(C)ccc2O1 (centres undefined),inactive
3,COc1cccc(C2c3c(oc4ccccc4c3=O)C(=O)N2CCCN2CCOCC2)c1 (centres undefined),inactive
4,CCOC(=O)CNC(=O)c1cc(-c2ccccn2)nc2c(C)c(Cl)ccc12,inactive
5,Cn1cccc1C(=O)N1CCC2(CC1)CCN(c1cccc(-c3ccccc3)c1)CC2,"inconclusive [inhibitor, single point]"
6,CCOc1ccc(OCCC(=O)OCC(=O)Nc2cccc(S(=O)(=O)N3CCCCC3)c2)cc1,"inconclusive [inhibitor, single point]"
7,CCOC(=O)C1=C(C)NC(=O)NC1c1ccccc1OCc1c(F)cccc1Cl (centres undefined),active: 16.4 µM
8,O=S(=O)(c1ccccc1Br)N1CCN(c2nc(-c3cccs3)nc3ccccc23)CC1,"inconclusive [inhibitor, single point]"
9,COc1ccc(/C=C/C(=O)NC(=S)N2CCN(c3ccccn3)CC2)cc1OC,"inconclusive [inhibitor, partial curve, poor fit]"
10,CC(=O)OC1C=CCC2C(=O)c3cccc(O)c3C(O)C12 (centres undefined),"inconclusive [inhibitor, single point]"
11,CO/N=C(/CNC(=O)c1ccc(F)cc1)c1ccc(Cl)cc1,"inconclusive [inhibitor, single point]"
12,O=C(NCCC1=CCCCC1)c1cc(S(=O)(=O)N2CCCCC2)ccc1Cl,"inconclusive [inhibitor, single point]"
13,COc1ccc(OCCn2cc(/C(N)=N/O)c3ccccc32)cc1,"inconclusive [inhibitor, partial curve, poor fit]"
14,Cc1cccc(CCNc2nc3ccc(C)cc3n3cnnc23)c1,inactive
15,FC(F)(F)c1cccc(N/N=C/c2ccccc2)c1,"inconclusive [inhibitor, single point]"
16,CCOc1ccccc1CN1CCN(Cc2ccc(C)o2)C(CCO)C1 (centres undefined),"inconclusive [inhibitor, single point]"
17,CCOc1cc(CNC(=O)c2sc3ncnc(N(C)C4CCCCC4)c3c2C)ccc1OC,"inconclusive [inhibitor, single point]"
18,CN(C)c1ccc(C=C2SC(=S)NC2=O)cc1,"inconclusive [inhibitor, partial curve, poor fit]"
19,Nc1nc(N)nc(-c2cccc([N+](=O)[O-])c2)n1,"inconclusive [inhibitor, single point]"
20,CC(=O)Cc1nsc(Nc2ccc(C)cc2)n1,"inconclusive [inhibitor, single point]"
21,Cc1ccc(Cl)cc1N(C)C(=O)c1cn(C2CCCCC2)c(=O)c2c1c1ccccc1n2C,"inconclusive [inhibitor, single point]"
22,CCc1c(C2(O)CCCCC2)[nH]c2cnccc12,active: 18.4 µM
23,CCCCCCCCCCCCCCC(C(=O)O)C(O)(CC(=O)OC)C(=O)O (centres undefined),active: 8.2 µM

row,Compound,Potency
1,CC1(C)Cc2cccc(OCC(=O)N3CCN(c4ccc(F)cc4)CC3)c2O1,"inconclusive [inhibitor, single point]"
2,CC(=O)C1=C(c2ccc(Cl)cc2)N(C(C)=O)n2c(nnc2C2CCCCC2)S1,"inconclusive [inhibitor, single point]"
3,O=C(Nc1cccc(-c2nnc(-c3ccccc3)o2)c1)C1CC1,"inconclusive [inhibitor, single point]"
4,O=C(CCNS(=O)(=O)c1cccc(C(F)(F)F)c1)NC1CC1,inactive
5,COc1ccc(-c2nc(CCNS(=O)(=O)c3ccc4c(c3)OCCO4)cs2)cc1,active: 16.4 µM
6,O=C(O)c1cccc(N2C(=O)/C(=C/c3ccc(SCc4ccc(Cl)cc4)o3)SC2=S)c1,"inconclusive [inhibitor, single point]"
7,COc1ccc(-c2cnn3cc(-c4cccc(Cl)c4)cnc23)cc1,"inconclusive [inhibitor, partial curve, poor fit]"
8,CCN(Cc1ccccc1)S(=O)(=O)c1ccc2c(c1)CC(C)N2C(=O)C1CCC1 (centres undefined),active: 18.4 µM
9,Cc1cc(C(=O)N/N=C2\CC(=O)c3ccccc32)c(C)n1-c1ccc(F)cc1,"inconclusive [inhibitor, partial curve]"
10,Cc1c(-n2c(O)c(C3=c4ccccc4=NC3=O)sc2=S)c(=O)n(-c2ccccc2)n1C,"inconclusive [inhibitor, partial curve, poor fit]"
11,Cc1ccc(N2C(=O)CC(Sc3nccc(C)n3)C2=O)cc1 (centres undefined),"inconclusive [inhibitor, single point]"
12,Cc1ccc(Cl)cc1NC(=O)C1CC(=O)Nc2ncnn21 (centres undefined),inactive
13,CCOC(=O)N1CCN(C(c2cccnc2)c2ccc3cccnc3c2O)CC1 (centres undefined),active: 1.64 µM
14,Cc1ccc(N(CC(=O)Nc2cccc(Cl)c2)S(=O)(=O)c2cccs2)cc1,"inconclusive [inhibitor, single point]"
15,CCOC(=O)C1=CCC2c3c(c4ccccc4n3C)C(=O)C1N2C(=O)OC(C)(C)C (centres undefined),"inconclusive [inhibitor, single point]"
16,C[n+]1c(/C=C/c2ccc(N)cc2)sc2ccccc21,"inconclusive [inhibitor, single point]"
17,Cc1ccc2onc(CC(=O)Nc3ccc(C(C)C)cc3)c2c1,"inconclusive [inhibitor, single point]"
18,COc1ccc(N/C(C)=C/C(=S)Nc2ccccc2)cc1,"inconclusive [inhibitor, single point]"
19,CC(=O)N1CCCC1C(=O)O (centres undefined),"inconclusive [inhibitor, partial curve]"
20,O=C(Nc1ccc2c(c1)oc1ccccc12)C1CC1,active: 9.2 µM
21,CCCCCOC(=O)Cn1c(=O)c2c(nc(N3CCOCC3)n2C)n(C)c1=O,inactive
22,Cc1ccc2nc(NC(=O)CN(C)S(=O)(=O)c3cccc4nsnc34)sc2c1,active: 2.91 µM
23,CC(C)(C)n1nnnc1C(c1cc2ccccc2o1)N1CCOCC1 (centres undefined),inactive
